Assay results reported in the supplement of paper PMC8728848.
The other results are listed elsewhere or left out.

Columns and labels:
Assay in all cases: glycan array binding signal (z-score within array); higher = stronger binding
Details in all cases: glycan notation: IUPAC condensed, linker removed
[1] = target: Gal(b1-4)GlcNAc(b1-6)GalNAc
Procedure, shortened: (§1)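 The binding signal is a Z-score computed within each array and averaged over linkers. Arrays of the same protein sequence at different concentrations or buffers were also averaged together. Data originate from 3228 arrays in the Consortium for Functional Glycomics database, kept only where the protein sequence was available.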

[2] = target: Gal(b1-4)GlcNAc(b1-6)[Gal(b1-3)]GalNAc
Procedure, shortened: as §1

[3] = target: Gal(b1-4)GlcNAc(b1-6)[Gal(b1-4)GlcNAc(b1-3)]GalNAc
Procedure, shortened: as §1

Gal(b1-4)GlcNAc6P = target: Gal(b1-4)GlcNAc6P
Procedure, shortened: as §1

Gal(b1-6)Gal = target: Gal(b1-6)Gal
Procedure, shortened: as §1

Gal3S(b1-3)GalNAc = target: Gal3S(b1-3)GalNAc
Procedure, shortened: as §1

Gal3S(b1-3)GlcNAc = target: Gal3S(b1-3)GlcNAc
Procedure, shortened: as §1

[4] = target: Gal3S(b1-3)[Fuc(a1-4)]GlcNAc
Procedure, shortened: as §1

Gal3S(b1-4)Glc = target: Gal3S(b1-4)Glc
Procedure, shortened: as §1

Gal3S(b1-4)Glc6S = target: Gal3S(b1-4)Glc6S
Procedure, shortened: as §1

Gal3S(b1-4)GlcNAc = target: Gal3S(b1-4)GlcNAc
Procedure, shortened: as §1

[5] = target: Gal3S(b1-4)[Fuc(a1-3)]Glc6S
Procedure, shortened: as §1

[6] = target: Gal3S(b1-4)[Fuc(a1-3)]GlcNAc
Procedure, shortened: as §1

[7] = target: Gal3S(b1-4)[Fuc(a1-3)]GlcNAc6S
Procedure, shortened: as §1

Gal3S4S(b1-4)GlcNAc = target: Gal3S4S(b1-4)GlcNAc
Procedure, shortened: as §1

Gal3S6S(b1-4)GlcNAc = target: Gal3S6S(b1-4)GlcNAc
Procedure, shortened: as §1

Gal3S6S(b1-4)GlcNAc6S = target: Gal3S6S(b1-4)GlcNAc6S
Procedure, shortened: as §1

Gal4S(b1-4)GlcNAc = target: Gal4S(b1-4)GlcNAc
Procedure, shortened: as §1

Gal4S6S(b1-4)GlcNAc = target: Gal4S6S(b1-4)GlcNAc
Procedure, shortened: as §1

Gal6P(b1-4)GlcNAc = target: Gal6P(b1-4)GlcNAc
Procedure, shortened: as §1

Gal6S(b1-3)GlcNAc = target: Gal6S(b1-3)GlcNAc
Procedure, shortened: as §1

Gal6S(b1-3)GlcNAc6S = target: Gal6S(b1-3)GlcNAc6S
Procedure, shortened: as §1

Gal6S(b1-4)Glc = target: Gal6S(b1-4)Glc
Procedure, shortened: as §1

Gal6S(b1-4)Glc6S = target: Gal6S(b1-4)Glc6S
Procedure, shortened: as §1

Gal6S(b1-4)GlcNAc = target: Gal6S(b1-4)GlcNAc
Procedure, shortened: as §1

Gal6S(b1-4)GlcNAc6S = target: Gal6S(b1-4)GlcNAc6S
Procedure, shortened: as §1

GalNAc(a1-3)Gal = target: GalNAc(a1-3)Gal
Procedure, shortened: as §1

GalNAc(a1-3)GalNAc = target: GalNAc(a1-3)GalNAc
Procedure, shortened: as §1

[8] = target: GalNAc(a1-3)GalNAc(b1-3)Gal(a1-4)Gal(b1-4)Glc
Procedure, shortened: as §1

[9] = target: GalNAc(a1-3)GalNAc(b1-3)Gal(a1-4)Gal(b1-4)GlcNAc
Procedure, shortened: as §1

GalNAc(b1-3)Gal = target: GalNAc(b1-3)Gal
Procedure, shortened: as §1

[10] = target: GalNAc(b1-3)Gal(a1-4)Gal(b1-4)GlcNAc
Procedure, shortened: as §1

[11] = target: GalNAc(b1-3)Gal(a1-4)Gal(b1-4)GlcNAc(b1-3)Gal(b1-4)Glc
Procedure, shortened: as §1

[12] = target: GalNAc(b1-3)Gal(a1-6)Gal(b1-4)Glc
Procedure, shortened: as §1

GalNAc(b1-3)GalNAc = target: GalNAc(b1-3)GalNAc
Procedure, shortened: as §1

GalNAc(b1-3)GlcNAc = target: GalNAc(b1-3)GlcNAc
Procedure, shortened: as §1

GalNAc(b1-4)Gal(b1-4)Glc = target: GalNAc(b1-4)Gal(b1-4)Glc
Procedure, shortened: as §1

GalNAc(b1-4)GlcNAc = target: GalNAc(b1-4)GlcNAc
Procedure, shortened: as §1

B1: B160 (Bifidobacterium sp) (protein)
chain: MVSHNKRIVAALAAVAAMGIGLAGCGGSDTAGDTKSGSDGGVVNITYMHRLPDSEGMTLVNDIVAKWNKEHPNIQVKATKFDGNAADMIKKLETDVKAGNAPDLAQVGYAEVPEVFTKGLLQDVTDEAAKYKDDFASGPFALMQVDGKTYGLPQDTGPLTYFYNAAEFEKLGITVPKTADELIETAKKTAAQGKYIMTFTPDEAMMMMSGQAGASGPWYKVDGNSWVVNTQTKGSKAVADVYQQLIDNKAALTNPRWDASFDNSIQSGQLIGTVAAAWEAPLFIDSAGGTGAGEWKVTQLGDWFGNGTKTGANGGSGVAVLKGSKHPAEAMEFLDWFNTQVDDLVSQGLVVAATTADAKTPQKWSDYFSGQDVMAEFKTANDNMGDFTYMPGFSAVGAAMKQTAAKAADGSAKVSDVFDTAQKTSVDTLKNLGLSVKE
glycan array binding signal (z-score) [1]: -0.133 | glycan array binding signal (z-score) [2]: -0.172 | glycan array binding signal (z-score) [3]: -0.161 | glycan array binding signal (z-score) (Gal(b1-4)GlcNAc6P): -0.156 | glycan array binding signal (z-score) (Gal(b1-6)Gal): -0.151 | glycan array binding signal (z-score) (Gal3S(b1-3)GalNAc): -0.177 | glycan array binding signal (z-score) (Gal3S(b1-3)GlcNAc): -0.199 | glycan array binding signal (z-score) [4]: -0.16 | glycan array binding signal (z-score) (Gal3S(b1-4)Glc): -0.159 | glycan array binding signal (z-score) (Gal3S(b1-4)Glc6S): -0.167 | glycan array binding signal (z-score) (Gal3S(b1-4)GlcNAc): -0.172 | glycan array binding signal (z-score) [5]: -0.134 | glycan array binding signal (z-score) [6]: -0.188 | glycan array binding signal (z-score) [7]: -0.162 | glycan array binding signal (z-score) (Gal3S4S(b1-4)GlcNAc): -0.166 | glycan array binding signal (z-score) (Gal3S6S(b1-4)GlcNAc): -0.174 | glycan array binding signal (z-score) (Gal3S6S(b1-4)GlcNAc6S): -0.112 | glycan array binding signal (z-score) (Gal4S(b1-4)GlcNAc): -0.191 | glycan array binding signal (z-score) (Gal4S6S(b1-4)GlcNAc): -0.156 | glycan array binding signal (z-score) (Gal6P(b1-4)GlcNAc): -0.173 | glycan array binding signal (z-score) (Gal6S(b1-3)GlcNAc): -0.142 | glycan array binding signal (z-score) (Gal6S(b1-3)GlcNAc6S): -0.179 | glycan array binding signal (z-score) (Gal6S(b1-4)Glc): -0.225 | glycan array binding signal (z-score) (Gal6S(b1-4)Glc6S): -0.169 | glycan array binding signal (z-score) (Gal6S(b1-4)GlcNAc): -0.18 | glycan array binding signal (z-score) (Gal6S(b1-4)GlcNAc6S): -0.183 | glycan array binding signal (z-score) (GalNAc(a1-3)Gal): -0.157 | glycan array binding signal (z-score) (GalNAc(a1-3)GalNAc): -0.173 | glycan array binding signal (z-score) [8]: -0.167 | glycan array binding signal (z-score) [9]: -0.166 | glycan array binding signal (z-score) (GalNAc(b1-3)Gal): -0.185 | glycan array binding signal (z-score) [10]: -0.138 | glycan array binding signal (z-score) [11]: -0.17 | glycan array binding signal (z-score) [12]: -0.159 | glycan array binding signal (z-score) (GalNAc(b1-3)GalNAc): -0.18 | glycan array binding signal (z-score) (GalNAc(b1-3)GlcNAc): -0.168 | glycan array binding signal (z-score) (GalNAc(b1-4)Gal(b1-4)Glc): -0.15 | glycan array binding signal (z-score) (GalNAc(b1-4)GlcNAc): -0.168
